Inconclusive means that the source gave no clear call. Such entries were picked first, then a sample of the others. Where a call stands in place of a potency, no number is given. For some of these results: A potency beside an inconclusive call is a rough fit, not a confirmed value. Calls of active or inactive are those of the source. Unless noted, calls follow the shape of the dose curve; as a rule, active = well fitted curve in the direction sought with a large enough effect; inconclusive = small, poorly fitted or top-dose-only effect, or another doubt; inactive = no such curve, though single readings can be large; an effect the other way counts as inactive or inconclusive.
Tests used:
[1] = P-glycoprotein substrates identified in KB-8-5-11 adenocarcinoma cell line, qHTS therapeutic library screen (AID 1346987); conditions: activity change, negative = cytotoxicity: at 44.5 µM (top of the series); also: potency is read from the fitted curve at half-maximal effect; nearly all actives have a fitted effect of over 65% in size
Method in brief: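 KB-8-5-11, a colchicine-selected P-gp-overexpressing KB-3-1 subline, was grown without colchicine for the assay. Cells were seeded at 500 cells/well, dosed in concentration-response and incubated 72 h at 37 degree C, 5% CO2. Viability was read by CellTiter-Glo luminescence.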

[2] = Primary redox qHTS assay for identification of artifact compounds. (AID 1845223); also: potency is read from the fitted curve at half-maximal effect
Method in brief: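 Amplex Red (25 uM) and HRP (250 mU/mL) in HBSS, with compounds for 15 min, then 250 uM DTT for 30 min, room temperature, dark. Fluorescence 525/598 nm read; normalized to DMSO and 10 uM DA3003; Hill fit.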

[3] = system: HeLa; assay: Primary qHTS to identify gynecologic anti-cancer compounds using libraries of approved drugs and bioactive compounds (AID 1345084); conditions: Gynecologic cancer cell panel viability, ATPlite luminescence, 48 h; series mostly up to 57.5 µM; also: nearly all actives have a fitted effect of over 55% in size; also: potency is read from the fitted curve at half-maximal effect
Method in brief: (§1)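 Cytotoxicity screen measuring ATP content by luciferase luminescence. Each compound is applied at five concentrations for 48 h at 37 C with 5% CO2.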

[4] = system: Zika virus NS2B-NS3 protease (unlinked complex); assay: Primary screen GU Rhodamine qHTS for Zika virus inhibitors: Unlinked NS2B-NS3 protease assay (AID 1347159); conditions: Recombinant ZIKV NS2B-NS3 protease, Rhodamine110 substrate fluorescence; series mostly up to 107 µM; also: potency is read from the fitted curve at half-maximal effect; nearly all actives have a fitted effect of over 60% in size
Method in brief: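 Noncovalent NS2B hydrophilic domain/NS3 protease complex (25 nM final) in 10 mM Tris-HCl pH 8.0, 0.01% Tween 20, preincubated 15 min with compounds (up to 114 microM), then 1.5 microM Rhodamine110 substrate. Fluorescence change over 15 min fitted to 4-parameter Hill.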

[5] = system: Zika virus NS2B-NS3 protease (linked construct); assay: Primary screen NINDS Rhodamine qHTS for Zika virus inhibitors (AID 1347160); also: potency is read from the fitted curve at half-maximal effect; nearly all actives have a fitted effect of over 55% in size
Method in brief: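 Purified NS2B-NS3 protease with the NS2B hydrophilic domain joined by a flexible linker (25 nM) in 10 mM Tris-HCl pH 8.0, 0.01% Tween 20, preincubated 15 min at RT with compound; Rhodamine110 peptide substrate 1.5 µM; fluorescence change over 15 min; 4-parameter Hill fit.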

[6] = Primary qHTS for inhibitors of nuclear receptor binding SET domain protein 2 (NSD2) in an isogenic RCH-ACV NSD2 p.E1099K mutant (9B) (AID 1645876); conditions: activity change, negative = viability loss: at 44.9 µM (top of the series) unless noted; also: nearly all actives have a fitted effect of over 70% in size
[7] = system: Tov112D; assay: Primary qHTS to identify gynecologic anti-cancer compounds using libraries of approved drugs and bioactive compounds (AID 1345084); conditions: Gynecologic cancer cell panel viability, ATPlite luminescence, 48 h; series mostly up to 57.5 µM; also: nearly all actives have a fitted effect of over 55% in size; also: potency is read from the fitted curve at half-maximal effect
Method in brief: as §1

[8] = qHTS of pediatric cancer cell lines to identify multiple opportunities for drug repurposing: Primary screen for SJ-GBM2 cells (AID 1347091)
Method in brief: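 Viability measured as metabolically active cells via CellTiter-Glo luminescence following 48 hours of compound exposure, 11-point dilutions in confirmatory testing. 500-1,000 cells/well plated 5 hours before dosing; controls were DMSO and 2.3 µM bortezomib.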

[9] = qHTS of pediatric cancer cell lines to identify multiple opportunities for drug repurposing: Primary screen for SK-N-MC cells (AID 1347093); conditions: SK-N-MC viability, CellTiter-Glo luminescence, 48 h; activity change, negative = cytotoxic: at 46 µM (top of the series)
Method in brief: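 Metabolically active cells were quantified by ATP-dependent luminescence (CellTiter-Glo, 15 min at room temperature) following 48 h treatment. Cells had been plated at 500-1,000 per well and settled for 5 h beforehand.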

[10] = qHTS of pediatric cancer cell lines to identify multiple opportunities for drug repurposing: Primary screen for U-2 OS cells (AID 1347096); also: nearly all actives have a fitted effect of over 50% in size
Method in brief: (§2)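 Viability after 48 h compound treatment at 37C, 500-1,000 cells/well, read as ATP luminescence with CellTiter-Glo. Primary screens used 11-point (MIPE, 0.78 nM-46 µM) or 8-point (NPC, 0.59 nM-46 µM) final concentrations; follow-up screens used 11-point dilutions.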

[11] = qHTS of pediatric cancer cell lines to identify multiple opportunities for drug repurposing: Primary screen for SK-N-SH cells (AID 1347098);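 also: DMSO served as neutral control and bortezomib at 2.3 µM as positive control; nearly all actives have a fitted effect of over 65% in size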
Method in brief: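 Cells (500-1,000/well) rested 5 h, then received compounds for 48 h; metabolically active cells were measured by CellTiter-Glo luminescence. Final concentrations spanned up to 46 µM (MIPE, 11-point) or 0.59 nM-46 µM (NPC, 8-point) in primary screens, 11-point in follow-ups.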

[12] = qHTS of pediatric cancer cell lines to identify multiple opportunities for drug repurposing: Primary screen for Rh18 cells (AID 1347102); also: nearly all actives have a fitted effect of over 65% in size
Method in brief: as §2

[13] = qHTS of pediatric cancer cell lines to identify multiple opportunities for drug repurposing: Primary screen for Rh30 cells (AID 1347107); also: nearly all actives have a fitted effect of over 75% in size
Method in brief: as §2

[14] = biological target: Cytochrome P450 3A4 (Homo sapiens) (UniProt P08684); assay: Cytochrome P450 family 3 subfamily A member 4 (CYP3A4) small molecule antagonists: luciferase qHTS assay (AID 1645841; active = well fitted curve in the direction sought with a large enough effect in the repeat runs; inconclusive = weak or mixed curves; inactive = no such curve, though single readings can be large; an effect the other way counts as inactive or inconclusive; also: nearly all actives have a fitted effect of over 45% in size)
Sequence of UniProt P08684 (P08684 whole entry, looked up): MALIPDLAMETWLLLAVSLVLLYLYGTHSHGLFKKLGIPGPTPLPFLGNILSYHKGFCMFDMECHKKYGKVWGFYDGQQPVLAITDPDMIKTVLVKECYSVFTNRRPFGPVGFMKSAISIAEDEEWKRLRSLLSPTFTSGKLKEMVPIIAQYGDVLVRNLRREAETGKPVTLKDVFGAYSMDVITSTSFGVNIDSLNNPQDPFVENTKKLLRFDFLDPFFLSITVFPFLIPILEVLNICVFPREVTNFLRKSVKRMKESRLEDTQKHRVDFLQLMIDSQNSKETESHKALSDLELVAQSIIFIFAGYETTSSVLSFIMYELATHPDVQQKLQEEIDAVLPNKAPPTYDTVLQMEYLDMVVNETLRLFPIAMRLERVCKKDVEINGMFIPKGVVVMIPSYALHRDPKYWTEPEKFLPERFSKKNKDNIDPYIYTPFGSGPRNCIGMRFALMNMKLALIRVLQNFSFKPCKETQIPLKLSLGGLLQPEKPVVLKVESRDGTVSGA
Method in brief: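 P450-Glo CYP3A4 enzyme with proluciferin substrate preincubated 10 min with compound at room temperature, then NADPH regeneration 1 h. Luciferin detection reagent added for 20 min; luminescence recorded. Ketoconazole positive control.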

[15] = biological target: Cytochrome P450 2C9 (Homo sapiens) (UniProt P11712); assay: Cytochrome P450 family 2 subfamily C member 9 (CYP2C9) small molecule antagonists: luciferase biochemical (cell-free) qHTS assay (AID 1645842; active = well fitted curve in the direction sought with a large enough effect in the repeat runs; inconclusive = weak or mixed curves; inactive = no such curve, though single readings can be large; an effect the other way counts as inactive or inconclusive; also: nearly all actives have a fitted effect of over 55% in size)
Sequence of UniProt P11712 (P11712 whole entry, looked up): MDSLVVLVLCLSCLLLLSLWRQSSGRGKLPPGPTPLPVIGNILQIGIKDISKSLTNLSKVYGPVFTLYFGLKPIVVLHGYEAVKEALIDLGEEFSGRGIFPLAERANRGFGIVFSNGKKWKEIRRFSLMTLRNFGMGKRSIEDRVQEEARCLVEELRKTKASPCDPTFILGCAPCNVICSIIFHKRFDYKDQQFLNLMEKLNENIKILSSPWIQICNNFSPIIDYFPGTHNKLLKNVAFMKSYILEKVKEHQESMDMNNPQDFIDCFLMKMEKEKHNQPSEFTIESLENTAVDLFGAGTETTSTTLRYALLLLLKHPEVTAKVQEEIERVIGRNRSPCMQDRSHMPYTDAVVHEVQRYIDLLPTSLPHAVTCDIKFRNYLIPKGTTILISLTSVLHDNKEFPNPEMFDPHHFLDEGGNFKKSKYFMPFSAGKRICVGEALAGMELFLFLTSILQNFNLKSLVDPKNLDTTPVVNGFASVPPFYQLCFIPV
Method in brief: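 Luminescence, after 20 min with luciferin detection reagent, reflected CYP2C9 turnover during a 1 h NADPH-driven reaction at 37C. Enzyme-substrate mix contained 0.4% bovine serum albumin and was preincubated with compound 10 min at room temperature.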

[16] = system: Hek293T; assay: Primary qHTS to identify gynecologic anti-cancer compounds using libraries of approved drugs and bioactive compounds (AID 1345084); conditions: Gynecologic cancer cell panel viability, ATPlite luminescence, 48 h, control line for the selectivity index; series mostly up to 57.5 µM; also: nearly all actives have a fitted effect of over 55% in size; also: potency is read from the fitted curve at half-maximal effect
Method in brief: as §1

[17] = system: OV90; assay: as above; conditions: Gynecologic cancer cell panel viability, ATPlite luminescence, 48 h; series mostly up to 57.5 µM
Method in brief: as §1

[18] = system: SKOV3; assay: as above; conditions: Gynecologic cancer cell panel viability, ATPlite luminescence, 48 h; series mostly up to 57.5 µM
Method in brief: as §1

[19] = system: Tov-21-G; assay: as above; conditions: Gynecologic cancer cell panel viability, ATPlite luminescence, 48 h; series mostly up to 57.5 µM
Method in brief: as §1

[20] = Drug repurposing screens with cells derived from glioblastoma tumor samples (AID 1345199); conditions: GBM patient neurospheres viability, ATP luminescence, 48 h; Potency: tumour line A unless noted; series mostly up to 46 µM; also: potency is read from the fitted curve at half-maximal effect; nearly all actives have a fitted effect of over 40% in size
Method in brief: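 Four patient lines of CD133+ GBM neurospheres were screened at several concentrations; hits were retested in those lines plus three slower-growing GBM lines, using 48-hour treatment and ATP-based viability.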
Tags tell the direction and shape of the fitted curve.

## CC(=O)OC1C(OC(=O)c2ccccc2)C2C(C)(C)CC(=O)CC2(C)C23CCC(C)(C2)C(O)CC13 (configuration not stated)
[1]
  Potency: inconclusive: 5.02 µM [inhibitor, partial curve, poor fit]
[2]
  Potency: inconclusive: 10.3 µM [activator, partial curve, poor fit]
[3]
  Potency: inactive

## COc1cc(C(=O)OCC2=CCC3C(C(=O)O)=COC(O[C@@H]4O[C@H](CO)[C@@H](O)[C@H](O)[C@H]4O)C23)ccc1O (some centres not stated)
[4]
  Potency: inconclusive: 28.2 µM [inhibitor, partial curve, poor fit]
[5]
  Potency: inconclusive: 10 µM [inhibitor, partial curve, poor fit]
[6]
  Potency: inactive
[2]
  Potency: inconclusive: 16.4 µM [activator, partial curve, poor fit]
[3]
  Potency: inactive
[7]
  Potency: inactive

## CC(=O)N(CC(O)CO)c1c(I)c(C(=O)NCCO)c(I)c(C(=O)NCC(O)CO)c1I (configuration not stated)
[8]
  Potency: inactive
[9]
  Potency: inactive
[10]
  Potency: inactive
[11]
  Potency: inactive
[12]
  Potency: inactive
[13]
  Potency: inactive
[14]
  Potency: inactive
[15]
  Potency: inactive
[16]
  Potency: inactive
[17]
  Potency: inactive
[18]
  Potency: inconclusive: 22.4 µM [rising, partial curve, poor fit]
[19]
  Potency: inactive
[20]
  Potency: inconclusive: 22.4 µM [inhibitor, partial curve]
